# From PubChem BioAssay AID1508642 (National Center for Advancing Translational Sciences (NCATS), 2021)
# Out of some 43,000 compounds screened, about 200 (0.47%) were called active. Another 12% or so got no clear call; they are omitted. Calls follow the shape of the dose curve; as a rule, active = well fitted cell-killing curve with a large enough effect; inconclusive = small, poorly fitted or top-dose-only effect, or effect the other way; inactive = flat fitted curve, though single readings scatter. The list shows a part of the results.
# Assay: Cell viability qHTS assay in S16 Pmp22-F2sN cells; also: nearly all actives have a fitted effect of over 65% in size
# Details: S16 Pmp22-F2sN Schwann cells viability, CellTiter-Glo, 24 h; series mostly up to 57.5 µM; activity change, negative = cytotoxicity: at the top concentration
# Procedure, shortened: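 Viability was measured by CellTiter-Glo luminescence (15 min, room temperature). This followed 24 h at 37 °C of compound exposure (23 nL pin transfer) in S16 Pmp22-F2sN Schwann cells, 500-1,000 per well.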
# % is scaled to controls: 0 for no effect and ±100 for the full control effect.
row,SMILES,"activity change, negative = cytotoxicity"
1,CCCCNC(=O)C1CCN(c2nc3ccc(C)cc3[nH]2)CC1,inactive: 9.26%
2,CC(C)c1ccc(CN(Cc2ccco2)c2cnc(S(C)(=O)=O)nc2C(=O)Nc2ccccc2)cc1,inactive: -18.2%
3,COc1ccc(-c2nc(C)c(CCNS(=O)(=O)c3ccc(F)cc3)s2)cc1OC,inactive: -2.76%
4,Cc1ccc2oc(-c3cccc(NC(=O)c4ccc(N5CCC(C)CC5)c([N+](=O)[O-])c4)c3)nc2c1,inactive: -0.645%
5,CC(C)(C)C(=O)Nc1nc2nc(-c3ccccc3)cc(=O)n2[nH]1,inactive: 2.39%
6,CCCCNC(=O)CN1C(=O)c2c(c3ccccc3n2C)C1c1ccc(OC)cc1 (stereo not given),inactive: 4.52%
7,CC(=O)c1ccc(NC(=O)CSc2c(C(C)C)cnc3c2c(=O)n(C)c(=O)n3C)cc1,inactive: -22.7%
8,COc1ccc(C2CC(=O)c3cc(-c4nc(-c5cccc([N+](=O)[O-])c5)cs4)c(=O)n(-c4ccc(F)cc4)c3C2)cc1 (stereo not given),inactive: -3.28%
9,CCc1cccc(C)c1NC(=O)c1cc(S(=O)(=O)N2CCC3(CC2)OCCO3)ccc1F,inactive: -13.4%
10,Cn1c(=O)n(C)c2cc(CNCc3ccccc3)ccc21,inactive: 5.65%
11,Cc1cc(C)c(S(=O)(=O)Nc2cc(Cl)c3oc4c(c3c2)C(=O)CCC4)cc1C,inactive: -1.11%
12,CCOC(=O)Cn1c(=O)n(C2CCCCC2)c2nc(-c3ccc(OC)cc3)nc(C(N)=O)c21,inactive: 1.51%
13,COc1ccc(Cc2nc3ccc(C(=O)NCCc4ccc(OC)c(OC)c4)cc3o2)cc1,inactive: -8.79%
14,Cc1cc(C)cc(NC(c2nnc(-c3cccc(F)c3)o2)c2ccc(F)cc2Cl)c1 (stereo not given),inactive: 1.76%
15,CCOc1ccc(C(=O)Nc2ccc(-c3nnc4n3CCCCC4)cc2)cc1OCC,inactive: -3.96%
16,Cc1cccc2c(=O)cc(CSCC(=O)Nc3ccc(Cl)cc3)[nH]c12,inactive: -24%
17,Cc1ccc(Cn2c(=O)n(Cc3ccccc3)c(=O)c3c(C)c(C)sc32)cc1,inactive: -8.26%
18,Cc1ccc(CNC(=O)C(=O)NCC(c2ccco2)S(=O)(=O)c2ccc(C)cc2)cc1 (stereo not given),inactive: -4.95%
19,Cc1ccc(CNS(=O)(=O)c2cc(Br)cc3c2N(C(=O)C2CC2)CC3)cc1,inactive: 11.9%
20,Cc1cc(F)ccc1NC(=O)C1CCN(S(=O)(=O)c2ccc3c(c2)CCCC(=O)N3)CC1,inactive: -1.01%

row,SMILES,"activity change, negative = cytotoxicity"
1,Cc1cccc(C(=O)Nc2ccc(C(=O)OCc3cc(=O)n4c(C)csc4n3)cc2)c1,inactive: 0.718%
2,NC(=O)CSc1oc(-c2cccs2)nc1S(=O)(=O)c1ccc(Br)cc1,inactive: -0.501%
3,COc1ccc(S(=O)(=O)NCC(c2ccco2)N2CCN(c3ccc(F)cc3)CC2)cc1 (stereo not given),inactive: -0.539%
4,CC(C)(C)NC(=O)CSc1nc(-c2ccc(F)cc2)cc(C(F)(F)F)n1,inactive: 2.8%
5,CC(C)c1cnc2c(c1SCC(=O)c1ccccc1)c(=O)n(C)c(=O)n2C,inactive: 2.9%
6,O=C(NCc1ccccc1)c1ccc2c(c1)N(Cc1ccccc1)C(=O)c1ccccc1S2(=O)=O,inactive: -4.32%
7,O=C(Cn1c(=O)c(C(F)(F)F)nc2ccccc21)Nc1ccc(Br)cc1F,inactive: 1.57%
8,COc1ccc(S(=O)(=O)N2CCN(c3ccccc3)CC2)cc1-c1noc(C)n1,inactive: 3.54%
9,COC(=O)c1ccc(NC(=O)N2CCN(c3nnc(C)c4c(C)n(-c5ccccc5)nc34)CC2)cc1,inactive: 1.44%
10,O=C(c1cnc2c(c1)COc1ccccc1-2)c1ccccc1O,inactive: 8.58%
11,Cn1nc(-c2ccccc2F)c2cc(C(=O)Nc3cc(F)ccc3F)sc21,inactive: 13.5%
12,Cc1ccccc1Cn1cc(CCC(=O)NCc2cccc(Br)c2)c2ccccc21,inactive: -10.7%
13,COc1cc(CNc2ccc3[nH]c(=O)[nH]c3c2)cc(Br)c1OCc1ccccc1F,inactive: -21.4%
14,Cc1cccc(CN2CCN(CC(=O)Nc3c(C)cccc3C)S2(=O)=O)c1,inactive: -2.17%
15,Cc1ccc(C)n1-c1nnc(N2CCCC(C(=O)NCc3cccc(Br)c3)C2)s1 (stereo not given),inactive: -5.84%
16,COCCNC(=O)CSc1nc(-c2ccccc2)[nH]c1-c1ccc(C)cc1,inactive: -3.2%
17,Cc1cccc(C(=O)Nc2ccc(N3CCC(N4CCCCC4)CC3)c(C(=O)O)c2)c1,inactive: -4.13%
18,Cc1ccc(Cl)cc1NC(=O)CC1Sc2ccccc2NC1=O (stereo not given),inactive: 0.121%
19,Cc1ccc(CNC(=O)CCc2c(C)nc3c4c(C)cc(C)nc4nn3c2C)cc1,inactive: 1.73%
20,CC1=C(C(=O)NCc2ccc(Cl)cc2)C2(CCC(C)CC2)OC1=O (stereo not given),inactive: 10.1%

row,SMILES,"activity change, negative = cytotoxicity"
1,NC1=NC(c2cc(F)cc(F)c2)n2c(nc3ccccc32)N1 (stereo not given),inactive: 20.3%
2,CCOC(=O)c1ccc2c(c1)N(Cc1ccc(F)cc1Cl)C(=O)c1ccccc1S2,inactive: -4.04%
3,Cc1cnc(=O)[nH]c1SCC(=O)Nc1cc(C(F)(F)F)ccc1Cl,inactive: -8.07%
4,CCCOc1ccc(CNC(=O)C2CCN(C(=O)c3sccc3-n3cccc3)CC2)cc1,inactive: -12.1%
5,Cc1cc2oc3c(c(=O)c2cc1C)C(c1ccc(C(C)C)cc1)N(c1nc(C)c(C)s1)C3=O (stereo not given),inactive: -2.01%
6,Cc1ccc(CNC(=O)CCCN2C(=O)CCn3nc(-c4cccn4C)cc32)cc1,inactive: -17.5%
7,COc1ccc(-c2nc3ccccc3n3c(-c4ccc(OC)cc4)c4c(=O)n(C)c(=O)n(C)c4c23)cc1,inactive: 8.61%
8,CCOc1ccc(CNC(=O)C2CCN(C(=O)N3CC(CC)Oc4ccc(C)cc43)CC2)cc1OC (stereo not given),inactive: -7.78%
9,Cc1cc(NC(=O)c2cc(-c3ccc(Cl)c(Cl)c3)on2)n(-c2ccccc2)n1,inactive: -2.77%
10,CCOC(=O)CSc1nc2sc3c(c2c(=O)n1-c1ccc(OC)cc1)CC(C(C)C)OC3 (stereo not given),inactive: -1.56%
11,COc1ccccc1NC(=O)Cn1c(=O)n(CC2CCC(C(=O)NCCc3ccccc3)CC2)c(=O)c2ccccc21 (stereo not given),inactive: 16.5%
12,Cc1ccccc1N1CC(c2nc3ccccc3n2Cc2ccc(Br)cc2)CC1=O (stereo not given),inactive: 2.2%
13,Cc1cc(Br)ccc1NC(=O)c1c(C)oc2ncnc(N3CCCCC3)c12,inactive: 9.39%
14,Cc1ccc(CNS(=O)(=O)c2ccc3c(c2)CC(C)N3C(=O)C2CCC2)cc1 (stereo not given),inactive: -25.9%
15,COc1ccc(OC)c(C(=O)CN2C(=O)N(c3ccc(C)cc3)S(=O)(=O)c3ccccc32)c1,inactive: 0.167%
16,O=C(Cn1c(-c2cccs2)cc2ccccc21)N1CCN(c2ccc(F)cc2)CC1,inactive: 9.98%
17,COC(=O)c1c(-c2cccs2)csc1NC(=O)c1ccc(C)cc1,inactive: 11%
18,Cc1ccccc1NC(=O)CCn1nc(-c2ccccc2)c2ccccc2c1=O,inactive: -23.8%
19,CCOc1ccc(Sc2cc(C(=O)NCc3ccccc3Cl)c3ccccc3n2)cc1,inactive: -2.81%
20,CCN(CC)CCOC(=O)c1ccc(NC(=O)c2cc3cc(OC)ccc3oc2=O)cc1,inactive: 3.68%
